Results reported in the supplement of paper PMC10928670.

Tests used:
Test in all cases: Agar dilution by CLSI M07.
[1] = compound: CC1(C)S[C@@H]2[C@H](NC(=O)Cc3ccccc3)C(=O)N2[C@H]1C(=O)O [penicillin G]
[2] = compound: CC[C@H]1OC(=O)[C@H](C)[C@@H](O[C@H]2C[C@@](C)(OC)[C@@H](O)[C@H](C)O2)[C@H](C)[C@@H](O[C@@H]2O[C@H](C)C[C@H](N(C)C)[C@H]2O)[C@](C)(O)C[C@@H](C)CN(C)[C@H](C)[C@@H](O)[C@]1(C)O [azithromycin]
[3] = compound: CO/N=C(\C(=O)N[C@@H]1C(=O)N2C(C(=O)O)=C(CSc3nc(=O)c(O)nn3C)CS[C@H]12)c1csc(N)n1 [ceftriaxone]
[4] = compound: C=CC1=C(C(=O)O)N2C(=O)[C@@H](NC(=O)/C(=N\OCC(=O)O)c3csc(N)n3)[C@H]2SC1 [cefixime]
[5] = compound: CN[C@@H]1[C@H](O)[C@H](NC)[C@H]2O[C@@]3(O)C(=O)C[C@@H](C)O[C@H]3O[C@@H]2[C@H]1O [spectinomycin]

Row | Test System | MIC [1] [µg/mL] | MIC [2] [µg/mL] | MIC [3] [µg/mL] | MIC [4] [µg/mL] | MIC [5] [µg/mL]
1 | Neisseria gonorrhoeae isolate 38 (GyrA: Wild type, ParC: Wild type, mtrR: Wild type, penA: WT NonMosaic, ponA: Wild type, porB: porB1a) | ≤ 0.03 | 0.25 | ≤ 0.015 | ≤ 0.015 | 32
2 | Neisseria gonorrhoeae isolate 193 (GyrA: Wild type, ParC: Wild type, mtrR: -35A Del, penA: Type IV NonMosaic, A517G, G543S, ponA: L421P, porB: G120K, A121D) | 4 | 0.25 | 0.06 | 0.03 | 8
3 | Neisseria gonorrhoeae isolate 107 (GyrA: Wild type, ParC: Wild type, mtrR: Wild type, penA: Type XXII NonMosaic, A517G, ponA: L421P, porB: Wild type) | 0.25 | 0.125 | ≤ 0.015 | ≤ 0.015 | 16
4 | Neisseria gonorrhoeae isolate 132 (GyrA: Wild type, ParC: Wild type, mtrR: -35A Del, penA: Type 69 NonMosaic, A517G, ponA: L421P, porB: G120K, A121D) | 2 | 0.25 | 0.03 | ≤ 0.015 | 16
5 | Neisseria gonorrhoeae isolate 181 (GyrA: Wild type, ParC: Wild type, mtrR: -35A Del, penA: Type II NonMosaic, A517G, ponA: Wild type, porB: porB1a) | > 64 | 0.125 | ≤ 0.015 | ≤ 0.015 | 16
6 | Neisseria gonorrhoeae isolate 187 (GyrA: Wild type, ParC: Wild type, mtrR: Wild type, penA: WT NonMosaic, ponA: Wild type, porB: porB1a) | ≤ 0.03 | 0.125 | ≤ 0.015 | ≤ 0.015 | 16
7 | Neisseria gonorrhoeae isolate 241 (GyrA: Wild type, ParC: Wild type, mtrR: A39T, penA: Type XXII NonMosaic, A517G, ponA: Wild type, porB: Wild type) | 0.125 | 0.06 | ≤ 0.015 | ≤ 0.015 | 16
8 | Neisseria gonorrhoeae isolate 237 (GyrA: Wild type, ParC: Wild type, mtrR: A39T, penA: Type II NonMosaic, A517G, ponA: Wild type, porB: Wild type) | 0.125 | 0.125 | ≤ 0.015 | ≤ 0.015 | 16
9 | Neisseria gonorrhoeae isolate 188 (GyrA: S91F, ParC: Wild type, mtrR: G45D, penA: Type IV NonMosaic, A517G, G543S, ponA: L421P, porB: G120K, A121D) | 2 | 0.06 | 0.03 | 0.03 | 32
10 | Neisseria gonorrhoeae isolate 179 (GyrA: Wild type, ParC: Wild type, mtrR: G45D, penA: Type XXII NonMosaic, A517G, ponA: Wild type, porB: Wild type) | 0.25 | ≤ 0.03 | ≤ 0.015 | ≤ 0.015 | 16
11 | Neisseria gonorrhoeae isolate 135 (GyrA: Wild type, ParC: Wild type, mtrR: -35A Del, A39T, penA: Type IV NonMosaic, A517G, G543S, ponA: L421P, porB: G120D) | 2 | 0.25 | 0.03 | 0.03 | 32
12 | Neisseria gonorrhoeae isolate 203 (GyrA: Wild type, ParC: Wild type, mtrR: -35A Del, A39T, penA: Type IV NonMosaic, A517G, G543S, ponA: Wild type, porB: G120K, A121D) | 2 | 0.5 | 0.03 | 0.03 | 16
13 | Neisseria gonorrhoeae isolate 225 (GyrA: Wild type, ParC: Wild type, mtrR: -35A Del, G45D, penA: Type IV NonMosaic, A517G, G543S, ponA: L421P, porB: G120K, A121D) | 2 | 0.06 | 0.06 | 0.06 | 16
14 | Neisseria gonorrhoeae isolate 16 (GyrA: Wild type, ParC: Wild type, mtrR: G45D, penA: Type XIX NonMosaic, A517G, ponA: Wild type, porB: G120D, A121D) | 0.125 | ≤ 0.03 | ≤ 0.015 | ≤ 0.015 | 32
15 | Neisseria gonorrhoeae isolate 218 (GyrA: D95N, ParC: Wild type, mtrR: -35A Del, penA: Type II NonMosaic, A517G, ponA: L421P, porB: porB1a) | 0.25 | 0.125 | ≤ 0.015 | ≤ 0.015 | 32
16 | Neisseria gonorrhoeae isolate 24 (GyrA: Wild type, ParC: Wild type, mtrR: -35A Del, penA: Type XXII NonMosaic, A517G, ponA: L421P, porB: G120D) | 1 | 0.25 | ≤ 0.015 | ≤ 0.015 | 32

Row | Test System | MIC [1] [µg/mL] | MIC [2] [µg/mL] | MIC [3] [µg/mL] | MIC [4] [µg/mL] | MIC [5] [µg/mL]
17 | Neisseria gonorrhoeae isolate 209 (GyrA: S91F, D95G, ParC: Wild type, mtrR: -35A Del, penA: Type V Nonmosaic, A517G, G543S, ponA: L421P, porB: G120K, A121D) | 4 | 0.25 | 0.06 | 0.06 | 16
18 | Neisseria gonorrhoeae isolate 98 (GyrA: Wild type, ParC: Wild type, mtrR: -35A Del, penA: Type XXII NonMosaic, A517G, ponA: Wild type, porB: G120D, A121D) | 1 | 0.5 | ≤ 0.015 | ≤ 0.015 | 16
19 | Neisseria gonorrhoeae isolate 175 (GyrA: Wild type, ParC: Wild type, mtrR: Wild type, penA: WT NonMosaic, ponA: Wild type, porB: porB1a) | ≤ 0.03 | 0.125 | ≤ 0.015 | ≤ 0.015 | 32
20 | Neisseria gonorrhoeae isolate 233 (GyrA: Wild type, ParC: Wild type, mtrR: -35A Del, G45D, penA: Type IX NonMosaic, A517G, ponA: L421P, porB: G120N, A121G) | 1 | 1 | 0.06 | 0.03 | 32
21 | Neisseria gonorrhoeae isolate 124 (GyrA: D95N, ParC: Wild type, mtrR: A39T, penA: Type II NonMosaic, A517G, ponA: Wild type, porB: Wild type) | 0.125 | ≤ 0.03 | ≤ 0.015 | ≤ 0.015 | 16
22 | Neisseria gonorrhoeae isolate 230 (GyrA: Wild type, ParC: Wild type, mtrR: G45D, penA: Type XXII NonMosaic, A517G, ponA: Wild type, porB: G120D) | 0.5 | 0.25 | 0.03 | 0.03 | 16
23 | Neisseria gonorrhoeae isolate 204 (GyrA: S91F, D95G, ParC: Wild type, mtrR: -35A Del, penA: Type V Nonmosaic, A517G, G543S, ponA: L421P, porB: Wild type) | 1 | 0.25 | ≤ 0.015 | ≤ 0.015 | 16
24 | Neisseria gonorrhoeae isolate 35 (GyrA: Wild type, ParC: Wild type, mtrR: Wild type, penA: Type I NonMosaic, ponA: Wild type, porB: Wild type) | 0.25 | 0.125 | ≤ 0.015 | ≤ 0.015 | 16
25 | Neisseria gonorrhoeae isolate 236 (GyrA: Wild type, ParC: Wild type, mtrR: -35A Del, G45D, penA: Type XXII NonMosaic, A517G, ponA: L421P, porB: G120D) | 0.125 | ≤ 0.03 | ≤ 0.015 | ≤ 0.015 | 32
26 | Neisseria gonorrhoeae isolate 128 (GyrA: Wild type, ParC: Wild type, mtrR: A39T, penA: Type II NonMosaic, A517G, ponA: Wild type, porB: Wild type) | 0.125 | ≤ 0.03 | ≤ 0.015 | ≤ 0.015 | 16
27 | Neisseria gonorrhoeae isolate 2 (GyrA: Wild type, ParC: Wild type, mtrR: -35A Del, G45D, penA: Type XXII NonMosaic, A517G, ponA: L421P, porB: G120D) | 2 | 1 | ≤ 0.015 | ≤ 0.015 | 16
28 | Neisseria gonorrhoeae isolate 53 (GyrA: Wild type, ParC: Wild type, mtrR: -35A Del, G45D, penA: Type II NonMosaic, A517G, ponA: L421P, porB: G120D) | 2 | 0.5 | 0.06 | 0.03 | 32
29 | Neisseria gonorrhoeae isolate 115 (GyrA: Wild type, ParC: Wild type, mtrR: G45D, penA: Type XXII NonMosaic, A517G, ponA: L421P, porB: G120D) | 1 | 0.25 | ≤ 0.015 | ≤ 0.015 | 32
30 | Neisseria gonorrhoeae isolate 147 (GyrA: S91F, D95G, ParC: Wild type, mtrR: G45D, penA: Type IV NonMosaic, A517G, G543S, ponA: L421P, porB: G120K, A121D) | 1 | 0.125 | 0.03 | 0.06 | 16
31 | Neisseria gonorrhoeae isolate 161 (GyrA: Wild type, ParC: Wild type, mtrR: -35A Del, G45D, penA: Type IV NonMosaic, A517G, G543S, ponA: L421P, porB: G120K, A121D) | 8 | 0.25 | 0.125 | 0.125 | 32
32 | Neisseria gonorrhoeae isolate 207 (GyrA: Wild type, ParC: Wild type, mtrR: -35A Del, G45D, penA: Type XIX NonMosaic, A517G, ponA: L421P, porB: G120D, A121N) | 0.125 | ≤ 0.03 | ≤ 0.015 | ≤ 0.015 | 32

MIC of N. gonorrhoeae strains collected 1971-2005, agar dilution (CLSI M07); ranges 0.03-64 mg/L (penicillin, azithromycin), 0.015-1 (cefixime, ceftriaxone), 0.5-256 (spectinomycin); higher = less susceptible. No active / inactive call per row; the paper counts cefixime and ceftriaxone above 0.25 and azithromycin above 1 mg/L as non-susceptible. The source says 'penicillin'; penicillin G is assumed. Isolates are numbered anew.
